Laboratory results as given in paper PMC4742118.
No constants are given. Whether binding was seen depends on the method and setting. In cells and extracts the contact can be indirect. Some entries that bind do so weakly or less than the wild type. For some assays here: Where a sequence is shown, tags or fusion partners need not be part of it. One block for each binder: values may come before it.

By UniProt entry, the sequences of proteins in these tests, tags left out. Residues count along the entry.
UniProt P35363: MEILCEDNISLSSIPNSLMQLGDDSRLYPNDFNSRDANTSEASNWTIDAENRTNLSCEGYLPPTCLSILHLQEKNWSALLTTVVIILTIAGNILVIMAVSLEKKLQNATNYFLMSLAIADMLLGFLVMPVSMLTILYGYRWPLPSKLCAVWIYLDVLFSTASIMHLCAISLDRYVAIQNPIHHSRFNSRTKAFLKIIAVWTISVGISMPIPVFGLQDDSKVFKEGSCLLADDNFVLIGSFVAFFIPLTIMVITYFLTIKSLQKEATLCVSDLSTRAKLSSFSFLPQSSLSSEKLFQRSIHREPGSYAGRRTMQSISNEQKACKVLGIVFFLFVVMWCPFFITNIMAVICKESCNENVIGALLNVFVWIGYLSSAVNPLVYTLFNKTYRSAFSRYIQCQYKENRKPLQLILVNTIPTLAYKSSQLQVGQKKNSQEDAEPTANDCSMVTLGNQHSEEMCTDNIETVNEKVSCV
UniProt Q14BI2, residues 19-872: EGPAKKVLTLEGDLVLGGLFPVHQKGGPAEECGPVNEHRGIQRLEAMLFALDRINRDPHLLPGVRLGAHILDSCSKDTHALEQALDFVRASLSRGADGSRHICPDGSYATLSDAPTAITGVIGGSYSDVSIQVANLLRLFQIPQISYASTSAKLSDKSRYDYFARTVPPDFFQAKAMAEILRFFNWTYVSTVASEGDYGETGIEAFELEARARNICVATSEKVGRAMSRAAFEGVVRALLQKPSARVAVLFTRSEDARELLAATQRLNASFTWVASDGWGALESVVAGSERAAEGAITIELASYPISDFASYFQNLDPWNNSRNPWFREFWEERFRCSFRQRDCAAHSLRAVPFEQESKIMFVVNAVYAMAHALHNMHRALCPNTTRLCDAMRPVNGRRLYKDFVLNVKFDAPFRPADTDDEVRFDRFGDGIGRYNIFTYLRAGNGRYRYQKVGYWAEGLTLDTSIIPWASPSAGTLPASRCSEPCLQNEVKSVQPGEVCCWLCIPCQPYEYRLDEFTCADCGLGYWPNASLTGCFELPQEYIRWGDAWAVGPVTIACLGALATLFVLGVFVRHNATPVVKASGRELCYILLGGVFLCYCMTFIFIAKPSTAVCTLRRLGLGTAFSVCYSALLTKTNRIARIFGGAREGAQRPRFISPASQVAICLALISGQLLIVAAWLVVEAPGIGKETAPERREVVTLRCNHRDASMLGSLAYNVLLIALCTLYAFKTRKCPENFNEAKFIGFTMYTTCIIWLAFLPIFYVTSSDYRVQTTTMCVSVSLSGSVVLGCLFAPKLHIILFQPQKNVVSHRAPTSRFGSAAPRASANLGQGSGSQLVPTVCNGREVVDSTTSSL
UniProt Q61616: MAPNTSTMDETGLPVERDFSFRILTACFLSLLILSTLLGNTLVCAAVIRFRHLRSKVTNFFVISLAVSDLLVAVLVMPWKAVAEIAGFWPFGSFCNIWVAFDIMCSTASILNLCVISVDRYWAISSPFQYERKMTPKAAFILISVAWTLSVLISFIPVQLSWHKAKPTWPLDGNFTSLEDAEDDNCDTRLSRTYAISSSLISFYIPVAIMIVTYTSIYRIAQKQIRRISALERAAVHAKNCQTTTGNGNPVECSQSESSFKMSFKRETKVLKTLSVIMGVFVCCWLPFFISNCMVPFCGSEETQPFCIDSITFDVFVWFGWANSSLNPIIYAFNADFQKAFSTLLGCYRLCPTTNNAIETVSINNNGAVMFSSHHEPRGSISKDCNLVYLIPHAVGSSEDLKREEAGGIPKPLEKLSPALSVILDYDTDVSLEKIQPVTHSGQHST
UniProt Q3UVX5, residues 19-1203: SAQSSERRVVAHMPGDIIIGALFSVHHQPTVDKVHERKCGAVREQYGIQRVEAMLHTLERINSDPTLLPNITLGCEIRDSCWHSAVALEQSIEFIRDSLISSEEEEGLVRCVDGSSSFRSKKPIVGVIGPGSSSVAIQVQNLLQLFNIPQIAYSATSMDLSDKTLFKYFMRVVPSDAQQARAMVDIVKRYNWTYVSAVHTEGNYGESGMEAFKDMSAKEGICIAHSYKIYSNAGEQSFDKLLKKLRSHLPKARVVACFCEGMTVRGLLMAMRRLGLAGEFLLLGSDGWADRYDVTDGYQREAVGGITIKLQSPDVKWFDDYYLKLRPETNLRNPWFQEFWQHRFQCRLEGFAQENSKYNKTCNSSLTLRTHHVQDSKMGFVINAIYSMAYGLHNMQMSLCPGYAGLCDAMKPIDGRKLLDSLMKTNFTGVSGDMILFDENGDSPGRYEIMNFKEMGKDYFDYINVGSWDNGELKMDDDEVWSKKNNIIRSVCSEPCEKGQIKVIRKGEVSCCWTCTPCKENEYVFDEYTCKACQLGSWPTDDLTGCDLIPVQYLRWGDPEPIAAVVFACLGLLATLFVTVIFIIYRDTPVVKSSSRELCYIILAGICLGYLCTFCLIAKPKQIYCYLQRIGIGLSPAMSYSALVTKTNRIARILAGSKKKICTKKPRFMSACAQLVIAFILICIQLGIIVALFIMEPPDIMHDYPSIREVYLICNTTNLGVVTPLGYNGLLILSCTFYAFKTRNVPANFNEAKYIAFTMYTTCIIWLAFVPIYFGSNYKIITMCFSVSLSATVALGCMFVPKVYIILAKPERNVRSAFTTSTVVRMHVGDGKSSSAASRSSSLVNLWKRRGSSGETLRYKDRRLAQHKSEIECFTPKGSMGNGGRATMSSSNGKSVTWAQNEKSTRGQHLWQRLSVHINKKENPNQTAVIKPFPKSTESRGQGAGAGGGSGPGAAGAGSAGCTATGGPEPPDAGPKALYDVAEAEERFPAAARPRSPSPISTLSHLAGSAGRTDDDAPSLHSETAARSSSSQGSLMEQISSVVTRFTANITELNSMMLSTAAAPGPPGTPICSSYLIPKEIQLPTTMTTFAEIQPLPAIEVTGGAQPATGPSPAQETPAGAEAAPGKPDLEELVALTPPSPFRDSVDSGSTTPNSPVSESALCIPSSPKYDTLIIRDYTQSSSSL
UniProt P61168: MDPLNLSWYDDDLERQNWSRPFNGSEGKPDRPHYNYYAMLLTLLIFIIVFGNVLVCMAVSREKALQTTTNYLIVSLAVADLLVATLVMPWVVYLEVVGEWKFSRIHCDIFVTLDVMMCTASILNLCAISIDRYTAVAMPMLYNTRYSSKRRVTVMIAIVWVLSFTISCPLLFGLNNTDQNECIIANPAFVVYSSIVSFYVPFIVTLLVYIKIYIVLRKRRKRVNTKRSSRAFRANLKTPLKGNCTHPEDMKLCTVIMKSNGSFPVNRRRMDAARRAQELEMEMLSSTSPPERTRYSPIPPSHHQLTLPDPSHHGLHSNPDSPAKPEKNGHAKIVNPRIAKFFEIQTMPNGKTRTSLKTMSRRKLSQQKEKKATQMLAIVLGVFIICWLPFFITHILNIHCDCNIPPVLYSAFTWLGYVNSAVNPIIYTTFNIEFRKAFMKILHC
UniProt Q64264: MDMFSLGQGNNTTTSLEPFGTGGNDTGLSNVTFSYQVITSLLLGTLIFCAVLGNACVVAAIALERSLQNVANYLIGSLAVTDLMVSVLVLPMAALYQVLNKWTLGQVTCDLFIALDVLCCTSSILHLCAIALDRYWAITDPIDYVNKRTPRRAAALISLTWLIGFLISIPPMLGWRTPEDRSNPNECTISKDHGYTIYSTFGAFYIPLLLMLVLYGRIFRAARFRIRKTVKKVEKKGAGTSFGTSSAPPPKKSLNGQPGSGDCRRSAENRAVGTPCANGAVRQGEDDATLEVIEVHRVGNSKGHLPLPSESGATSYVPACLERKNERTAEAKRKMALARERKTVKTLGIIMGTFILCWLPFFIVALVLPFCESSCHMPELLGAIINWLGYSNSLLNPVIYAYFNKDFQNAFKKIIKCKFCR
UniProt P42866: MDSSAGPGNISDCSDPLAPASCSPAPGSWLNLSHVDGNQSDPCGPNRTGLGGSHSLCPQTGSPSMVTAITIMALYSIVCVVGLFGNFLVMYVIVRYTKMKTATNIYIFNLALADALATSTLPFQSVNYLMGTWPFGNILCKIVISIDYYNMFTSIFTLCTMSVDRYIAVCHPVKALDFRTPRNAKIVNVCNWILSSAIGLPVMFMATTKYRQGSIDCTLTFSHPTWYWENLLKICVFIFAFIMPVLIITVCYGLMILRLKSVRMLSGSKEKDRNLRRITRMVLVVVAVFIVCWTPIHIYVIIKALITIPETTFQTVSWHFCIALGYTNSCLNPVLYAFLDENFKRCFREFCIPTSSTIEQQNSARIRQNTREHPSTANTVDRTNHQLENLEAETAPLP
UniProt P47746: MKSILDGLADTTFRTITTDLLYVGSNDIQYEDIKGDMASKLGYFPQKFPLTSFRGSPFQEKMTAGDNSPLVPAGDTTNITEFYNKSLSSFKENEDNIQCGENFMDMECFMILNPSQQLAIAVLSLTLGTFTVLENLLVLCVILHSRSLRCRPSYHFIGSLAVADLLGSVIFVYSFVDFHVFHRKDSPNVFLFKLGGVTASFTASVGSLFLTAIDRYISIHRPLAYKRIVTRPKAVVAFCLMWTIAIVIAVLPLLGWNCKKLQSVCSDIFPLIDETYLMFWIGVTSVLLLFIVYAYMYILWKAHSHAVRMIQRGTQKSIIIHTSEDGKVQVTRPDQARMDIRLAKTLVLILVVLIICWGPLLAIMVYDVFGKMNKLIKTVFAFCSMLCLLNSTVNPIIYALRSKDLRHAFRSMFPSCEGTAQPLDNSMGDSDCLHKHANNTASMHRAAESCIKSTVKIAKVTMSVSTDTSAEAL
UniProt Q9Z0J4: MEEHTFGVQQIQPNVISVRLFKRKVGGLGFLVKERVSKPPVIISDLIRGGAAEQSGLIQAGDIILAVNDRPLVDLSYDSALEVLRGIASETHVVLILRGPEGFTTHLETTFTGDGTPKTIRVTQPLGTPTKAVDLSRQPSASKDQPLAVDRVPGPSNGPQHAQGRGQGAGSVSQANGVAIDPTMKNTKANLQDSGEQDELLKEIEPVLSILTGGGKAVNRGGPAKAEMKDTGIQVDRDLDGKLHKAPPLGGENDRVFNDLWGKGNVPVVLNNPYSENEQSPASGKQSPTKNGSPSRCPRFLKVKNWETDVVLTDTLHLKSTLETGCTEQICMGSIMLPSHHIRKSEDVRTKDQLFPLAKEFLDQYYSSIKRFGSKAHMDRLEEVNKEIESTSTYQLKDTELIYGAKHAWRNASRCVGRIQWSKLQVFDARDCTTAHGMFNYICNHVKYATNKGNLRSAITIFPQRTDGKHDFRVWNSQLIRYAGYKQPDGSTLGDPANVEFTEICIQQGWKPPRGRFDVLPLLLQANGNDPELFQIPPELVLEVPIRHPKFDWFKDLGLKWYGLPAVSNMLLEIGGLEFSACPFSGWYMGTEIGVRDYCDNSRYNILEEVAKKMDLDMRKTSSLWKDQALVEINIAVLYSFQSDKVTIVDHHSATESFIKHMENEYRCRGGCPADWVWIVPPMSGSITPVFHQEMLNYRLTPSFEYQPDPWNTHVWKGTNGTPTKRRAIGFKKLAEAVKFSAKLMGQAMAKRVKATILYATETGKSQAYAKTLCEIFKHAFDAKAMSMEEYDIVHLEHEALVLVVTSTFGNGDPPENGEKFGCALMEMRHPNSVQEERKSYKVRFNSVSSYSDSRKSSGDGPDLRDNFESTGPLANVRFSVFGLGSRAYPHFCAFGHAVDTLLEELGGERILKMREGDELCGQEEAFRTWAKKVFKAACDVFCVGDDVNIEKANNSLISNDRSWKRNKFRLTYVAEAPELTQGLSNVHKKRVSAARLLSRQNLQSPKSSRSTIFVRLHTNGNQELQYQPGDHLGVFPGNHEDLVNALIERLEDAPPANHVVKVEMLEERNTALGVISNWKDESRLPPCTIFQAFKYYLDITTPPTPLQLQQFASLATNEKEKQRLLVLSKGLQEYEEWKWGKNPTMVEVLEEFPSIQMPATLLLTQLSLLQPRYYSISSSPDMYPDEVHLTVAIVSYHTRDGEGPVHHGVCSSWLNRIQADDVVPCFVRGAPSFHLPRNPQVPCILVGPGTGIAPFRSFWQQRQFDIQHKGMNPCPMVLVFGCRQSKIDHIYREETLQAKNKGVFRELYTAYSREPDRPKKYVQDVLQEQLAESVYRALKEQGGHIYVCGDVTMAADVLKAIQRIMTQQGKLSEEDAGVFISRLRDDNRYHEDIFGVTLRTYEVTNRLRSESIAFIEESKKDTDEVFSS

Legend:
[1] = biological target: NMDAR NR1 C0-C1-C2 subunit, full length murine, BiFC fusion (murine) (UniProt P35438); test: split reporter; BiFC in living CHO cells transiently co-transfected with the pair of full-length proteins in the VN173 and VC155 plasmids (0.3 ug); confocal fluorescence 24 h later
[2] = biological target: serotonin 2A receptor, full length murine, BiFC fusion (murine) (UniProt P35363); test: as above
[3] = biological target: metabotropic glutamate 2 receptor, full length murine, BiFC fusion (murine) (UniProt Q14BI2); test: as above
[4] = biological target: dopamine D1 receptor, full length murine, BiFC fusion (murine) (UniProt Q61616); test: as above
[5] = biological target: metabotropic glutamate 5 receptor, full length murine, BiFC fusion (murine) (UniProt Q3UVX5); test: as above
[6] = biological target: dopamine D2 receptor, full length murine, BiFC fusion (murine) (UniProt P61168); test: as above
[7] = biological target: serotonin 1A receptor, full length murine, BiFC fusion (murine) (UniProt Q64264); test: as above
[8] = biological target: mu-opioid receptor (MOR), full length murine, BiFC fusion (murine) (UniProt P42866); test: as above
[9] = biological target: cannabinoid CB1 receptor, full length murine, BiFC fusion (murine) (UniProt P47746); test: as above
[10] = biological target: cannabinoid CB1 receptor, endogenous in mouse brain (mouse (endogenous in mouse brain synaptosomes)) (UniProt P47746); test: condition: only membranes heated at 100 °C for 10 min in 1% SDS before the immunoprecipitation; co-IP; selectivity control: synaptosomal membranes heated at 100 °C for 10 min in 40 mM Tris-HCl, 1% SDS, cooled, octylthioglucoside added to 0.65%, then immunoprecipitation
[11] = biological target: mu-opioid receptor (MOR), endogenous in mouse brain (mouse (endogenous in mouse brain synaptosomes)) (UniProt P42866); test: as above
[12] = biological target: NMDAR NR1 subunit, endogenous in mouse brain (mouse (endogenous in mouse brain synaptosomes)) (UniProt P35438); test: as above
[13] = biological target: mu-opioid receptor (MOR), endogenous in mouse brain (mouse (endogenous in mouse brain synaptosomes)) (UniProt P42866); test: co-IP; as a8, membranes from σ1R-/- mice; IP of MOR or NR1; Western blot
[14] = biological target: cannabinoid CB1 receptor, endogenous in mouse brain (mouse (endogenous in mouse brain synaptosomes)) (UniProt P47746); test: co-IP; solubilised synaptosomal membranes of mouse brain (PAG); MOR, CB1 or NR1 precipitated with biotinylated IgG against extracellular domains; Western blot; wild-type and control mice, also after icv morphine, BD1047 with morphine, MK801, or CCI surgery
[15] = biological target: mu-opioid receptor (MOR), endogenous in mouse brain (mouse (endogenous in mouse brain synaptosomes)) (UniProt P42866); test: as above
[16] = biological target: NMDAR NR1 subunit, endogenous in mouse brain (mouse (endogenous in mouse brain synaptosomes)) (UniProt P35438); test: as above
[17] = biological target: neural nitric oxide synthase (nNOS), full length murine, BiFC fusion (murine) (UniProt Q9Z0J4); test: split reporter; BiFC in living CHO cells transiently co-transfected with the pair of full-length proteins in the VN173 and VC155 plasmids (0.3 ug); confocal fluorescence 24 h later

binding [1]: binds
binding [2]: binds
binding [3]: binds
binding [4]: binds
binding [5]: binds
binding [6]: binds
binding [7]: binds
binding [8]: binds
binding [9]: binds
B1: histidine triad nucleotide-binding protein 1 (HINT1), full length murine, BiFC fusion (protein, UniProt P70349 1-126)
chain: MADEIAKAQVAQPGGDTIFGKIIRKEIPAKIIFEDDRCLAFHDISPQAPTHFLVIPKKHISQISVADDDDESLLGHLMIVGKKCAADLGLKRGYRMVVNEGADGGQSVYHIHLHVLGGRQMNWPPG

binding [10]: no binding
binding [11]: no binding
binding [12]: no binding
binding [13]: binds weakly
binding [14]: binds
binding [15]: binds
binding [16]: binds
B2: HINT1 protein, endogenous in mouse brain (protein, UniProt P70349 1-126)
chain: MADEIAKAQVAQPGGDTIFGKIIRKEIPAKIIFEDDRCLAFHDISPQAPTHFLVIPKKHISQISVADDDDESLLGHLMIVGKKCAADLGLKRGYRMVVNEGADGGQSVYHIHLHVLGGRQMNWPPG

binding [17]: binds
B3: regulator of G protein signaling of the Rz subfamily, RGSZ2, full length murine, BiFC fusion (protein, UniProt Q9QZB0 1-210)
chain: MRKRQQSQNEGTQAVSQAPGNQRPNNTCCFCWCCCCSCSCLTVRNEERGDSSGRSPHTTKMESIQVLEECQNPTADEVLSWSQNFDKMMKTPAGRNLFREFLRTEYSEENLLFWLACEDLKKEQNKKAVEEKARMIYEDYISILSPKEVSLDSRVREVINRSLLDPSPHMYEDAQLQIYTLMHRDSFPRFLNSQIYKAFVESTTSCTSES
